# Reference: article PMC4336329 (PLoS ONE, 2015)
# Hit rate of the full screen: of about 310,000 compounds, about 14,000 (4.5%) showed an effect of 50% or more. Effects have a minus sign here. The list shows a part of the results.
# Target: human ether-à-go-go-related gene (hERG) potassium channel (human, UniProt Q12809)
# Assay: primary screen, population patch clamp on CHO cells stably expressing hERG
# 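Also: peak tail current of the secondary pulse compared with the same well before compound.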
# human ether-à-go-go-related gene (hERG) potassium channel, sequence (Q12809 whole entry, looked up): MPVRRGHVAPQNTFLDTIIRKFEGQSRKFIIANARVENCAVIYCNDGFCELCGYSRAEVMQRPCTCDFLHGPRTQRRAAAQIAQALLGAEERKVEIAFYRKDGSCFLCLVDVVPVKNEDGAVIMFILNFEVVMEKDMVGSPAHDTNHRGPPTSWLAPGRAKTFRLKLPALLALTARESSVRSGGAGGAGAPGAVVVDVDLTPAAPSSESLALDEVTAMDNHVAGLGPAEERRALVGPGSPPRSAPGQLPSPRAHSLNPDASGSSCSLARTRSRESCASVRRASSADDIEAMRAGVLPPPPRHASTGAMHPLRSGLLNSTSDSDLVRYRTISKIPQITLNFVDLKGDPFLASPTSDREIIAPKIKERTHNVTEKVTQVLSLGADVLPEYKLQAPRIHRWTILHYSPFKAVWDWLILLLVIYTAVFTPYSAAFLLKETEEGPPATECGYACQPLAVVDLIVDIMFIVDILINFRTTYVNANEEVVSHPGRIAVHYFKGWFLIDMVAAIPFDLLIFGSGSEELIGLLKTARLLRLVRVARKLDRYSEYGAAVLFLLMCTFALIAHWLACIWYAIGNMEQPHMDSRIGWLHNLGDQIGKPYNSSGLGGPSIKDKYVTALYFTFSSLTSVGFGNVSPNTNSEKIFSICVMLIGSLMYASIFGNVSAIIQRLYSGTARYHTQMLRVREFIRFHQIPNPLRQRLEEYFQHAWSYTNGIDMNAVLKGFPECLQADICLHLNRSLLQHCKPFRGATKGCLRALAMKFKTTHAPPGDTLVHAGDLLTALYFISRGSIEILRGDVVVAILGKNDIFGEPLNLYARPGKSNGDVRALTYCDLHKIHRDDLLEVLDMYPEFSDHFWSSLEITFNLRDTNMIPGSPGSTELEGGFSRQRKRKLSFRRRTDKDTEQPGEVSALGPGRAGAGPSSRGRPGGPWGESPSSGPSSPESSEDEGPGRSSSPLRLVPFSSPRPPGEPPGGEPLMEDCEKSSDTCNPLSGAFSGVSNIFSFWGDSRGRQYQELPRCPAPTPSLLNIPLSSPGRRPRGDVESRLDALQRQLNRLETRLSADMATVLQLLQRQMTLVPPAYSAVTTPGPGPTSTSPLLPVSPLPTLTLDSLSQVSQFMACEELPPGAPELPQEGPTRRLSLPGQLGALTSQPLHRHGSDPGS
row,Compound,"hERG current change (%, negative = inhibition) at 10uM [%]"
1,COCCCn1cnnc1SCc1nc2sc(C(C)=O)c(C)c2c(=O)[nH]1,-17
2,COc1ccc(CCNS(=O)(=O)c2ccc3c(c2)NC(=O)CCS3)cc1OC,15.3
3,Fc1ccc(/C=N/n2c(COc3ccccc3)n[nH]c2=S)cc1,26.1
4,CCCn1c(=S)[nH]c2cc(C(=O)N3CCN(c4ccccc4OC)CC3)ccc2c1=O,2.53
5,CC(=O)Nc1ccc(NC(=O)Cn2ccc([N+](=O)[O-])n2)cc1,3.89
6,O=C(CCN1CCOCC1)N1CCCC(Nc2cccc(F)c2)C1 (stereo not shown),-1.16
7,O=C(NCc1ccco1)C1CCCCC1,-2.94
8,Cc1noc(C)c1COC(=O)CCc1nc2ccccc2s1,3.17
9,COc1ccccc1C(=O)n1nc(-c2ccco2)nc1SC,10.2
10,CN(CCOc1ccccc1)C(=O)C1CCC(=O)N(CCCN2CCCC2=O)C1 (stereo not shown),27.5
11,CC(C)Cc1ccc(S(=O)(=O)Nc2cccnc2)cc1,9.66
12,Cc1ccc(C(=O)N/C(=C\c2ccc3c(c2)OCO3)C(=O)Nc2ccc(C(=O)O)cc2)cc1,17.9
13,Cc1ccc(C2CC(=O)NC(SCC(N)=O)=C2C#N)s1 (stereo not shown),-5.34
14,O=C1COc2ccc(C(=O)COC(=O)/C=C/c3ccc(Br)o3)cc2N1,-8.26
15,CC(C)c1ccc(Nc2ccc(C(=O)O)cc2[N+](=O)[O-])cc1,25.4
16,Cc1cccc(C)c1-n1c(C)nn(Cc2ccc([N+](=O)[O-])cc2)c1=O,-30.8
17,Nc1nc(Br)c2c(F)cccc2c1-c1ccc(Cl)cc1,-22.6
18,COC(=O)c1ccn(CSc2c(F)c(F)cc(F)c2F)n1,15.3
19,Cn1cc(S(=O)(=O)N2CCCC2)cc1C(=O)N1CCN(c2ccccc2)CC1,-35.8
20,CCN1CCN(CCC(=O)Nc2ccc(Br)cc2)CC1.Cl,-24.4
21,Cc1ccc(C)c(OCCC(=O)NNC(=O)Cn2nc(C)cc2C)c1,21.8
22,Cc1cccc(C(=O)N2CCc3cc(-c4nc(NC(=O)CN5CCCC5)sc4C)ccc32)c1,-0.886

row,Compound,"hERG current change (%, negative = inhibition) at 10uM [%]"
1,COc1cccc(C(=O)N2CCN(Cc3ccc(OC)cc3OC)CC2)c1.O=C(O)C(=O)O,-38.9
2,CCc1nnc(NC(=O)c2ccc(OC)cc2OC)s1,-1.35
3,CN(C(=O)COC(=O)c1cc(Br)c(Br)s1)C1CCS(=O)(=O)C1 (stereo not shown),-39.1
4,COC(=O)c1ccc(COc2cc([N+](=O)[O-])cc3cccnc23)cc1,16.3
5,COC(=O)C1=C[C@@H](C(=O)OC)[C@@H]2C3=C(C(=O)[C@]2(CC(C)C)NC(=O)c2ccccc2)[C@H](C)n2c(=O)n(-c4ccccc4)c(=O)n2[C@@H]3C1,-8.87
6,COc1ccc(C(CC(=O)Nc2cc(C)ccn2)N2Cc3ccccc3C2=O)cc1 (stereo not shown),-9.05
7,CCN(c1ccc(NC(=O)c2ccc(N3CCCC3=O)cc2)cc1)C(C)C,5.87
8,N#Cc1ccccc1OCC(=O)NCC1(N2CCCCC2)CCCCC1,-29.4
9,Cc1cc(C)nc(NS(=O)(=O)c2cccs2)c1,3.36
10,O=C(NCc1ccc(F)cc1)c1cccc2c1C(=O)N(Cc1cccnc1)C2,-61.8
11,CC(C)(C)c1ccc(C(=O)N2CCCN(c3ccc([N+](=O)[O-])cn3)CC2)cc1,-72.3
12,CC(C)Oc1ccc(OCCSc2nc3ccccc3n2CC(=O)O)cc1,9.73
13,O=C(C[n+]1cc(-c2ccc(Cl)c(Cl)c2)n2c1CCC2)c1cccs1.[Br-],-3.09
14,COC(=O)CNC(=O)CN1c2cccc3cccc(c23)S1(=O)=O,-13.9
15,COCCCn1c(SCC(=O)NC2CCCC2)nnc1-c1cccs1,-3.3
16,O=C(c1ccoc1)N1CCC(CO)(CCc2ccccc2)CC1,-28.7
17,Cc1noc(/C=C/c2cccs2)c1S(=O)(=O)N1CCC(C(=O)NCCCN2CCC(C)CC2)CC1,-83.7
18,Cc1[nH]nc(SCC(=O)NCCc2ccccc2)c1[N+](=O)[O-],15.9
19,COc1ccc2c(c1)cc(C(=O)N[C@@H](CCSC)C(=O)N1CCC(C(=O)O)CC1)n2C,21.1
20,Cc1c(CCC(=O)NCCC(=O)O)c(=O)oc2c(C)c3oc4c(c3cc12)CCCC4,10.7
21,CC(C)c1ccc(NC(=O)CN2C(=O)COc3ccc(S(=O)(=O)N4CCOCC4)cc32)cc1,16.9
